Experimental findings from PMC10848721 are described below.

Chains of the proteins cited; added tags and fusions are not shown. Lines headed by an entry give the natural chain unless they say otherwise; changes in a name come on top. A line that says so, or that is headed by a name, gives the form on record, which may keep a tag or linker. Residues count along the entry.
TMEM55B residues 80 to 160 (Q86T03, residues 73-153): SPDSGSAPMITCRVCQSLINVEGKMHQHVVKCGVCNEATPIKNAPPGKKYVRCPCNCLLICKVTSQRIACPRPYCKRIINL
Halo-TMEM55B (Q86T03-2, form named): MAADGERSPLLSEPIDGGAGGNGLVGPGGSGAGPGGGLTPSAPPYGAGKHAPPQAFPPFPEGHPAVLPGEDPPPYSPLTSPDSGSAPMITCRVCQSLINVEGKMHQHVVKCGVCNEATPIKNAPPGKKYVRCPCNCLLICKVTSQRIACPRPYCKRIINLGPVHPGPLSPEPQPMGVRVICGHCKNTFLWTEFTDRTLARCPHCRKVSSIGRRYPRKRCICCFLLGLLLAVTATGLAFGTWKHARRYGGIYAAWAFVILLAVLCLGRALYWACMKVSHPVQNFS
TMEM55B R151E (Q86T03-2, form named): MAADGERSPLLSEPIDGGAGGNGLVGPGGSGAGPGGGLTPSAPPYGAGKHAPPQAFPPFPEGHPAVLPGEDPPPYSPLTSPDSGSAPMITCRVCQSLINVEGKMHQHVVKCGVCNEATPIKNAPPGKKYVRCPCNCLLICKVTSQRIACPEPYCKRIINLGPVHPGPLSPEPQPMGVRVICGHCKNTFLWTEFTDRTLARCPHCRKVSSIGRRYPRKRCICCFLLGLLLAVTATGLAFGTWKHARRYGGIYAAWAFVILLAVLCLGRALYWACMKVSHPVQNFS
TMEM55B K141E (Q86T03-2, form named): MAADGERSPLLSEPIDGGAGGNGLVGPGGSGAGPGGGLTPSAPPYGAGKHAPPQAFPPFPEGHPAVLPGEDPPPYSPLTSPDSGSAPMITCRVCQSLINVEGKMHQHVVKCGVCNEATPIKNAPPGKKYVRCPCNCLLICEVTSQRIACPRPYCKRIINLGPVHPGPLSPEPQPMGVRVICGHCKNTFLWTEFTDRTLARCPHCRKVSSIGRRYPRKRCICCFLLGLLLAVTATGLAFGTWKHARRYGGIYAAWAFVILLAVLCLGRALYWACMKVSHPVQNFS
UniProt Q8N4L2: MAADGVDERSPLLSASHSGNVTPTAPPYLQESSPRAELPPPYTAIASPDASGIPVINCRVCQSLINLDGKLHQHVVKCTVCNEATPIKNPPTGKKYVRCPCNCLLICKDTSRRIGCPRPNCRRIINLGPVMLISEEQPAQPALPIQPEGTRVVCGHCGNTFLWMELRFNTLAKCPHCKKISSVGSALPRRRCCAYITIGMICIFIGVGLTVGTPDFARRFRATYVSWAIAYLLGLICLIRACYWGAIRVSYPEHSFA

These are yes or no findings as the source states them, for the method shown. In cells and extracts the contact can be indirect. Some entries that bind do so weakly or less than the wild type. For some assays here: Tags and fused reporters may be left off the sequences shown.

For assay [1], the target named is T1, RILPL1-GFP WT (UniProt Q5EBL4).
T1 sequence: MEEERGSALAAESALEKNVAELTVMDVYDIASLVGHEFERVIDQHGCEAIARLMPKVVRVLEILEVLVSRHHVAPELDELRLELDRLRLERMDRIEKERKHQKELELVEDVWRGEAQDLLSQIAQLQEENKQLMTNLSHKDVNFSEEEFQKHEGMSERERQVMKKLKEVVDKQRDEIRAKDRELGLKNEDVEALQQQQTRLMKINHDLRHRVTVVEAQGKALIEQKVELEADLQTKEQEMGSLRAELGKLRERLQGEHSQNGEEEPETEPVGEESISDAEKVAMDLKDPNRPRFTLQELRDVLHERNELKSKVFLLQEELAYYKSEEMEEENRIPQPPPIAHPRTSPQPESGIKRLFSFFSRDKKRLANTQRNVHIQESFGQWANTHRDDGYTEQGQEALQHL
Description: co-IP; GFP-Trap agarose IP of GFP-tagged RILPL1 from lysates of transiently transfected HEK293 cells (with Flag-LRRK2 Y1699C and HA-Rab8A Q67L as indicated), 1 to 2 hours; washed with 50 mM tris-HCl pH 7.5, 150 mM NaCl; quantitative immunoblot.

Assay [2] deals with T2, RILPL1 lacking the last eight amino acids (UniProt Q5EBL4).
T2 sequence: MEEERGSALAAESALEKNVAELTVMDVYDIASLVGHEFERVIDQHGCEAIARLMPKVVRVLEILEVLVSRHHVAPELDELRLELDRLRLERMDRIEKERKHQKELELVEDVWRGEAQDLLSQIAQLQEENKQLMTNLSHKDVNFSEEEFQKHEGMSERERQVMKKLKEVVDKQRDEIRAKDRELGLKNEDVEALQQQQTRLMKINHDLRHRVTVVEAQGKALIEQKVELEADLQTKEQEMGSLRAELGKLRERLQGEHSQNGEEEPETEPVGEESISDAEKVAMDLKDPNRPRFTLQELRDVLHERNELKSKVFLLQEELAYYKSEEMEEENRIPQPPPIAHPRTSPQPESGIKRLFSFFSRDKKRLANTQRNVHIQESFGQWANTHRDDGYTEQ
The description is as above.

In assay [3] the target is TMEM55B residues 80 to 160 (UniProt Q86T03). Description: co-IP; HaloLink Resin IP of Halo-TMEM55B (full-length, truncated or point mutants) from lysates of transiently transfected HEK293 cells, 1 to 2 hours; washed with 50 mM tris-HCl pH 7.5, 150 mM NaCl; quantitative immunoblot. On the technique in general: A western blot detects proteins with antibodies after separation by electrophoresis.

The target of assay [4] is TMEM55B R151E (UniProt Q86T03). Described as above.
Assay [5] addresses Halo-TMEM55B (UniProt Q86T03). Described as above.
In assay [6] the target is TMEM55B K141E (UniProt Q86T03). The assay is described as above.
Assay [7] deals with TMEM55A (UniProt Q8N4L2). Description: co-IP; fig. S11B; 'overexpression studies'; legend not shown; bait and tags not told.
For assay [8], the target named is Halo-TMEM55B (UniProt Q86T03). The description is as above.

On to “endogenous TMEM55B (from UniProt Q86T03-2 1-284)”, for which the binding result in assay [1] is recorded as “binds”; in assay [2], “no binding”.

B1: RILPL1 (found with overexpressed TMEM55B or TMEM55A) (protein, UniProt Q5EBL4 1-403)
chain: MEEERGSALAAESALEKNVAELTVMDVYDIASLVGHEFERVIDQHGCEAIARLMPKVVRVLEILEVLVSRHHVAPELDELRLELDRLRLERMDRIEKERKHQKELELVEDVWRGEAQDLLSQIAQLQEENKQLMTNLSHKDVNFSEEEFQKHEGMSERERQVMKKLKEVVDKQRDEIRAKDRELGLKNEDVEALQQQQTRLMKINHDLRHRVTVVEAQGKALIEQKVELEADLQTKEQEMGSLRAELGKLRERLQGEHSQNGEEEPETEPVGEESISDAEKVAMDLKDPNRPRFTLQELRDVLHERNELKSKVFLLQEELAYYKSEEMEEENRIPQPPPIAHPRTSPQPESGIKRLFSFFSRDKKRLANTQRNVHIQESFGQWANTHRDDGYTEQGQEALQHL
As for B1, the binding entry in assay [3] was “binds”; in assay [4], “no binding”; in assay [5] it was “binds”; in assay [6], “binds”; in assay [7], “binds”; in assay [8], “binds”.
